Some of the results follow. Cut-off read from the data, not from the text of the source: active = 3.2 or more and inactive = the rest. Most of these values are background signal.
B1: NANS_Y71_E68D (peptide)
chain: ALDRPYTSKHS
B2: NARS2_Y138_YF (peptide)
chain: RHPLEYLRQFP
B3: NAT1_Y208 (peptide)
chain: ESMNTYLQTSP
B4: NAT1_Y208_M205V (peptide)
chain: ESVNTYLQTSP
B5: NATD1_Y45 (peptide)
chain: RAVLLYEYVGK
B6: NAXD_Y85_YF (peptide)
chain: GGCQEYTGAPF
B7: NBEAL2_Y2748_E2747K (peptide)
chain: SGETKYNPTEA
B8: NCF1_Y41_R42Q (peptide)
chain: SEKVVYQRFTE
B9: NCKIPSD_Y660 (peptide)
chain: KLRMEYLSLMH
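Note: displayed peptides selected on beads carrying the immobilized SH2 domain, with library peptides lacking any tyrosine serving as negative controls.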

Each binder was assayed against SHP2 C-SH2 domain E139D (assay: enrichment score (SH2-bound / input frequency) (ratio); bacterial display of known human phosphotyrosine sites (pTyr-Var adds point mutants) read by sequencing; higher = stronger binding; tyrosines were phosphorylated by kinases first). Settings: peptide library: pTyr-Var.
In the case of B1, the enrichment score is reported as inactive: 0.621.
With B2 the enrichment score was inactive: 1.58.
For B3, the enrichment score was inactive: 0.908.
For B4, the enrichment score was inactive: 0.863.
B5 was tested, and the enrichment score was inactive: 2.41.
For B6, the enrichment score was inactive: 0.749.
For B7, the enrichment score was inactive: 0.541.
B8 was tested, and the enrichment score was inactive: 0.64.
B9 was tested, and the enrichment score was inactive: 2.67.

These binders were tested against SHP2 C-SH2 domain wild-type in the same assay as above. Settings: peptide library: pTyr-Var.
B1 was tested, and the enrichment score was inactive: 0.529.
With B2 the enrichment score was inactive: 1.4.
For B3, the enrichment score was inactive: 0.897.
B4 was tested, and the enrichment score was inactive: 0.666.
B5 was tested, and the enrichment score was inactive: 2.14.
For B6, the enrichment score was inactive: 0.649.
For B7, the enrichment score was inactive: 0.452.
In the case of B8, the enrichment score is reported as inactive: 1.01.
In the case of B9, the enrichment score is reported as inactive: 2.91.

What follows are binders tested against SHP2 N-SH2 domain L43F in the same assay as above. Settings: peptide library: pTyr-Var.
In the case of B1, the enrichment score is reported as inactive: 0.578.
In the case of B2, the enrichment score is reported as inactive: 1.36.
In the case of B3, the enrichment score is reported as inactive: 0.918.
For B4, the enrichment score was inactive: 0.905.
With B5 the enrichment score was inactive: 2.06.
In the case of B6, the enrichment score is reported as inactive: 0.675.
For B7, the enrichment score was inactive: 0.478.
With B8 the enrichment score was inactive: 0.598.
For B9, the enrichment score was active: 3.98.

These binders were tested against SHP2 N-SH2 domain T42A in the same assay as above. Settings: peptide library: pTyr-Var.
In the case of B1, the enrichment score is reported as inactive: 0.577.
For B2, the enrichment score was inactive: 1.4.
For B3, the enrichment score was inactive: 0.775.
B4 was tested, and the enrichment score was inactive: 0.543.
In the case of B5, the enrichment score is reported as inactive: 2.29.
With B6 the enrichment score was inactive: 0.566.
In the case of B7, the enrichment score is reported as inactive: 0.396.
For B8, the enrichment score was inactive: 0.802.
With B9 the enrichment score was active: 5.1.

These binders were tested against SHP2 N-SH2 domain T52S in the same assay as above. Settings: peptide library: pTyr-Var.
B1 was tested, and the enrichment score was inactive: 0.533.
In the case of B2, the enrichment score is reported as inactive: 1.36.
B3 was tested, and the enrichment score was inactive: 0.877.
With B4 the enrichment score was inactive: 0.993.
B5 was tested, and the enrichment score was inactive: 2.02.
B6 was tested, and the enrichment score was inactive: 0.742.
With B7 the enrichment score was inactive: 0.562.
In the case of B8, the enrichment score is reported as inactive: 0.697.
With B9 the enrichment score was active: 4.66.

These binders were tested against SHP2 N-SH2 domain wild-type in the same assay as above. Settings: peptide library: pTyr-Var.
B1 was tested, and the enrichment score was inactive: 0.663.
For B2, the enrichment score was inactive: 1.15.
In the case of B3, the enrichment score is reported as inactive: 1.15.
In the case of B4, the enrichment score is reported as inactive: 1.06.
With B5 the enrichment score was inactive: 2.
In the case of B6, the enrichment score is reported as inactive: 0.75.
B7 was tested, and the enrichment score was inactive: 0.545.
In the case of B8, the enrichment score is reported as inactive: 0.786.
B9 was tested, and the enrichment score was inactive: 2.77.

— the supplement of paper PMC10369915
